Measurements as given in PubChem BioAssay AID1240 (Sanford-Burnham Center for Chemical Genomics, 2008).
About 800 (1.6%) of roughly 50,000 compounds showed an effect of 50% or more. This is one part of the list.

These molecules were tested against Bcl-2-like protein 10 (Homo sapiens) (UniProt Q9HD36) (assay: Phenotype converters, Bcl-B/TR3 peptide binding displacement, primary biochemical FP (AID 1240;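 also: 0% = Bcl-B with tracer peptide and DMSO and 100% = tracer peptide lacking Bcl-B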)). Conditions: GST-Bcl-B / FITC-TR3 peptide fluorescence polarization; stronger effect = higher value; compound at 3.75 mg/L.
Sequence of UniProt Q9HD36 (Q9HD36 whole entry, looked up): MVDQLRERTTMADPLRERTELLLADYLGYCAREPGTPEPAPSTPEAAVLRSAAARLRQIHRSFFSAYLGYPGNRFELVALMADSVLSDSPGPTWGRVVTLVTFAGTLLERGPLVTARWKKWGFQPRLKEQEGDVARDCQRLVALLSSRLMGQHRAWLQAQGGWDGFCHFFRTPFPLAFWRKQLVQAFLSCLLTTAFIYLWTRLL

Row | SMILES | displacement
1 | CN1C(=O)C(=Cc2ccc(-c3ccc(Cl)c(C(=O)O)c3)o2)C(=O)N(C)C1=O | 14.5%
2 | Cc1ccc(C(=O)N2CCN(c3ccc(Cl)cc3)CC2)cc1 | -3%
3 | O=C(c1ccc(F)cc1)N1CCN(c2cc(N3CCCC3)c(F)cc2[N+](=O)[O-])CC1 | -2.7%
4 | Cc1occc1C(=O)N1CCCc2ccccc21 | 9.4%
5 | CCOc1ccc(-c2cc(C(=O)Nc3c(C)cccc3CC)c3ccccc3n2)cc1 | -4.4%
6 | c1ccc2cc(OCCCCN3CCCCC3)ccc2c1 | 6.3%
7 | CCCCc1ccc(C(=O)NNC(=O)c2ccccc2C)cc1 | -7.9%
8 | Cc1ccc(-c2nc3ncccc3o2)cc1NC(=O)COc1ccc(C(C)(C)C)cc1 | 5.4%
9 | CCCCN=C(CCC)C1=C(O)CC(C)(C)CC1=O | -12.1%
10 | O=c1ccnc(SCc2ccc(Cl)cc2Cl)[nH]1 | -27.9%
11 | Cc1nnc2nc(-c3cccc(Cl)c3Cl)[nH]n12 | 13.4%
12 | COc1cc(-c2nc3ccccn3c2/N=C/c2cccc([N+](=O)[O-])c2)ccc1O | 11.3%
13 | CCOC(=O)CC(=O)c1c(C)[nH]c(C(=O)OCC)c1C | -18.1%
14 | COc1ccc(/C=N/Nc2ccc(Br)cc2)cc1[N+](=O)[O-] | -7.2%
15 | O=C1NN(c2ccccc2)C(=O)/C1=C\c1ccc(O)cc1 | -1.7%
16 | COc1ccc(CCN=CC2=C(O)CC(c3ccccc3)CC2=O)cc1OC (stereo unspecified) | 1.2%
17 | COc1ccc(Cl)cc1C(=O)N(Cc1ccccc1)C(C)C | 11.9%
18 | CC1(C)CC(=O)C=C(NC2CC(C)(C)NC(C)(C)C2)C1 | 2.6%
19 | O=c1c(-c2nc3ccccc3s2)coc2cc(OCc3ccc([N+](=O)[O-])cc3)ccc12 | 6.2%
20 | Cc1ccc(OCC(=O)NCc2ccc(F)cc2)cc1 | -10.4%
21 | COc1cc(C(=O)N2CCN(C(=O)c3ccncc3)CC2)cc(OC)c1OC | 0.3%
22 | O=[N+]([O-])c1ccc(N2CCOCC2)c(Cl)c1N1CCOCC1 | 12.9%
23 | CC1=C(C(=O)OCc2ccc(C)cc2)C(c2ccc(O)cc2)NC(=O)N1 (stereo unspecified) | -6.7%

Row | SMILES | displacement
24 | CCOc1ccccc1NC(=O)CSc1nc2ccccc2s1 | -10.8%
25 | CCCOc1ccc(C(=O)Nc2cc(C(=O)OC)cc(C(=O)OC)c2)cc1 | 8.8%
26 | CCOc1cc(/C=C2\C(=O)NC(=O)N(c3ccc(C)cc3)C2=O)c(Br)cc1OC | 16.8%
27 | CN(C(=O)COc1ccc2ccccc2c1)c1ccccc1 | 9%
28 | O=C(Nc1cccc2ccccc12)C1C2C3CCC(C3)C12 (stereo unspecified) | -0.5%
29 | CCOc1ccccc1C1C(C(=O)OC)=CNC=C1C(=O)OC | 0.6%
30 | CCOc1ccc(NC(=O)c2ccccc2NC(=O)c2ccccc2)cc1 | 15.4%
31 | COc1ccc(-c2c(C)nn3c(-c4cccs4)cc(C(F)(F)F)nc23)cc1 | -2.1%
32 | O=C(Nc1cccc2nsnc12)c1ccc(OCc2ccccc2)cc1 | 35.4%
33 | COc1ccc2c3c(c(=O)oc2c1)CCCC3 | -3.8%
34 | CCOC(=O)c1sc(NC(=O)c2c(-c3ccccc3)noc2C)c(C(=O)OCC)c1C | -4.7%
35 | CC(C)Nc1nc(-c2ccccc2Cl)nc2ccccc12 | 24.8%
36 | N#Cc1ccccc1NC(=O)NS(=O)(=O)c1ccccc1Cl | 15.9%
37 | COc1ccc(-c2ccc(-c3nc(-c4ccccc4Cl)no3)cc2)cc1 | -8.7%
38 | O=C1c2ccccc2C(=O)C1(Nc1ccc(F)cc1)c1ccccc1 | 17.4%
39 | COc1ccc(S(=O)(=O)N2CCN(Cc3ccc(OC)c(OC)c3OC)CC2)cc1 | -9.1%
40 | O=C(CSCc1ccccc1)NCCc1ccc(Cl)cc1 | -6.7%
41 | COc1cccc(C(=O)Nc2cc(-c3nc4ccccc4o3)ccc2OC)c1 | -29.6%
42 | O=C(NCCO)c1cccc2c1C(=O)c1ccccc1-2 | 7.8%
43 | Cc1c(C(=O)Nc2ccc(Cl)cn2)oc2ccccc12 | 15.4%
44 | Cc1cc(=O)oc2c(C)c(O)c(C(=O)c3ccccc3)cc12 | -3.1%
45 | O=[N+]([O-])c1cc(C(=S)N2CCOCC2)ccc1O | 10.2%
46 | CC(NS(=O)(=O)c1ccc(Cl)cc1)C1C2CC3CC(C2)CC1C3 (stereo unspecified) | 10.6%

Row | SMILES | displacement
47 | Cc1ccccc1/C=N/NC(=O)c1ccc(-c2ccccc2)cc1 | -7.2%
48 | COc1ccc(C(CC(=O)c2ccc(C)cc2)Nc2ccc(Br)cc2)cc1 (stereo unspecified) | -4.2%
49 | C=CCOc1ccc(/C=N/NC(=O)CN(Cc2ccccc2)S(=O)(=O)c2ccccc2)cc1 | -4.4%
50 | COc1ccc(S(=O)(=O)N2CCN(C(=O)c3cccnc3)CC2)cc1 | 12.2%
51 | CC(=O)/C=C/c1cc[n+](C)cc1 | 7.1%
52 | O=C1c2ccccc2-c2c(-c3ccccc3)sc(=O)n21 | -1.5%
53 | Cc1ccc(C(=O)O/N=C(\N)c2ccccn2)cc1[N+](=O)[O-] | 8.2%
54 | C(=C\c1ccco1)/C=N/Nc1nnc2c(n1)[nH]c1ccccc12 | -1.8%
55 | CCOc1cc(-c2nc3ccccc3c(=O)[nH]2)cc(Br)c1O | -10.4%
56 | CC(=O)N(C1=C(N2CCOCC2)C(=O)c2ccccc2C1=O)c1ccc(C(=O)O)cc1 | 1.1%
57 | O=C(/C=C/c1ccco1)NCCCNC(=O)/C=C/c1ccco1 | 1.1%
58 | COc1ccc(NC(=O)O/N=C\c2ccc(N(C)C)cc2)cc1 | 4.8%
59 | CCc1ccc(NC(=O)C2CC(=O)N(c3ccc(CC)cc3)C2)cc1 (stereo unspecified) | 9.5%
60 | Cc1ccccc1N1CCN(C(=O)CN2C(=O)c3ccccc3C2=O)CC1 | -7.4%
61 | Cc1ccc(/C=C/C(=O)NCc2ccco2)o1 | 11.2%
62 | COc1cc(OC)cc(C(=O)Nc2cccc(-c3nc4ncccc4o3)c2C)c1 | 5.6%
63 | CC1(C)CC(=O)C(C(O)c2ccc([N+](=O)[O-])cc2)C(C)(C)N1 (stereo unspecified) | -12.9%
64 | CCOc1ccc(C(=O)Nc2cc(-c3nc4ccccc4o3)ccc2C)cc1[N+](=O)[O-] | 1.7%
65 | CC(=O)c1cccc(NC(=O)c2cccc(Cl)c2)c1 | -5.2%
66 | COc1ccc(N(CC(=O)Nc2ccc(Br)cc2)S(C)(=O)=O)cc1 | 3.9%
67 | COc1ccc(/C=c2\sc3nnc(-c4ccccc4)n3c2=O)c(OC)c1 | 28%
68 | COc1ccc(CCN(C(=O)CCC(=O)O)C2CC(=O)N(c3cccc(Cl)c3)C2=O)cc1 (stereo unspecified) | -7%
69 | O=C(NCCOc1ccccc1)c1ccccc1C(F)(F)F | 5.6%

Row | SMILES | displacement
70 | O=C1c2ccccc2C(=O)c2c1cccc2S(=O)(=O)Nc1ccc(Cl)cc1 | 9.5%
71 | COc1ccc(C(=O)Nc2ccc(OC(F)(F)F)cc2)cc1Cl | -0.6%
72 | NC(=O)c1c(NC(=O)c2ccccc2Cl)sc2c1CCCC2 | -2%
73 | O=C(Oc1ccc(C(=S)N2CCOCC2)cc1)c1ccccc1 | 12.4%
74 | Cc1[nH]c(=S)c(C#N)c(-c2cccs2)c1C(=O)Nc1ccccc1 | -0.3%
75 | O=C(Cc1cccc2ccccc12)N1CCN(c2ccccc2)CC1 | -4%
76 | O=C1NC(=O)C(=Cc2ccc(OCc3ccccc3F)cc2)C(=O)N1 | 13.6%
77 | CC(C)(C)C(=O)/C=C(\N)COc1ccccc1 | -11.6%
78 | CC(=O)N(c1ccc(Cl)cc1)S(=O)(=O)c1ccc(Cl)cc1 | 14.9%
79 | O=C1N=C(N2CCN(C3=NC(=O)/C(=C/c4ccccc4O)S3)CC2)S/C1=C\c1ccccc1O | -13.8%
80 | Cc1ccc(CSCCNC(=O)c2ccc(CN(c3cccc(Cl)c3)S(C)(=O)=O)cc2)cc1 | 15.7%
81 | O=C(COc1cccc(Cl)c1)NC1CCCCC1 | -6%
82 | COc1ccc(Br)cc1CN1CCN(Cc2ccc(OC)c(OC)c2)CC1 | 1.7%
83 | O=C(CCCN1C(=O)/C(=C/c2ccccc2)SC1=S)Nc1ccccc1 | 20.6%
84 | O=[N+]([O-])c1ccc(Nc2c(F)c(F)c(F)c(F)c2F)cc1 | 2.3%
85 | O=[N+]([O-])c1ccccc1/C=N/Nc1ncc(Br)cn1 | -10.7%
86 | NNC(=O)Cn1nc(-c2ccccc2)c2ccccc2c1=O | -0.9%
87 | Cc1ccc2nc(/C(C#N)=C/c3cc([N+](=O)[O-])ccc3O)[nH]c2c1 | 24.3%
88 | CC(=O)Oc1ccccc1/C=C1\C=C(c2ccc(Cl)cc2)OC1=O | 108%
89 | CCc1ccccc1NC(=O)C1CC(=O)N(c2ccc(Br)cc2)C1 (stereo unspecified) | -5%
90 | Cc1cccc(/C=N/n2c(C)nnc2C)c1 | 12.2%
91 | O=C(CCc1ccccc1)Nc1ccc(Br)cc1 | 9.1%
92 | CN(C)Cc1c(O)ccc2c1c(-c1ccccc1)nn2-c1ccccc1 | 0.9%

Row | SMILES | displacement
93 | O=C(c1ccccc1)c1ccc(N2CCN(C(=O)c3ccccc3F)CC2)c(F)c1 | -26.3%
94 | O=C(NC1CCCCCC1)c1cccc(Cl)c1 | 4.5%
95 | CCc1ccc(NC(=O)C(C)Oc2ccc(OC)cc2)cc1 (stereo unspecified) | 5.9%
96 | CCOC(=O)C1=C(C)NC(=S)NC1c1ccc(OC(F)F)cc1 (stereo unspecified) | -5.4%
97 | O=C(CSc1nnc(-c2cccs2)n1-c1ccccc1)c1cccc([N+](=O)[O-])c1 | -3.1%
98 | C=CCc1c(C)[nH]c2c(OC)cccc2c1=S | -6%
99 | COc1ccc(OC)c(NC(=O)CN(c2ccccc2OC)S(=O)(=O)c2ccccc2)c1 | -1.1%
100 | CC(C)(C)OC(=O)C1C(=O)CC(C)(O)C(C(=O)OC(C)(C)C)C1c1ccccc1 (stereo unspecified) | -1.3%
101 | Cc1ccc(CCC(=O)Nc2ccc(Br)cc2)o1 | 10.1%
102 | O=C(COc1ccc(Cl)cc1Br)NNC(=O)c1cccc(O)c1 | -6.7%
103 | CC(=O)NC(c1ccc(C)cc1)c1c(OC(=O)COc2ccccc2)ccc2ccccc12 (stereo unspecified) | -49.5%
104 | NC(=O)C1CCN(C2CC(=O)N(Cc3ccc(Cl)cc3)C2=O)CC1 (stereo unspecified) | -6.6%
105 | COc1cc(C=C2C(=O)NC(=O)NC2=O)ccc1OCc1c(C)no[n+]1[O-] | -3.9%
106 | Cc1ccc([N+](=O)[O-])cc1N1C(=O)C2C(C1=O)C1C=CC2C12CC2 (stereo unspecified) | 1.9%
107 | O=P(Cc1cccc[n+]1[O-])(c1ccccc1)c1ccccc1 | 16.2%
108 | Cc1nn(C)c(C)c1NC(=O)c1ccc([N+](=O)[O-])cc1 | 5.1%
109 | COC(=O)c1c(-c2cccc3ccccc23)csc1N | -6.8%
110 | CCOc1cc(C2/C(=C(\O)c3ccc(C)cc3)C(=O)C(=O)N2c2nncs2)ccc1O (stereo unspecified) | 8.3%
111 | Cc1ccnc(NC(=O)c2ccc(OCC(C)C)cc2)c1 | -8.5%
